In PubChem BioAssay AID360 (National Center for Advancing Translational Sciences (NCATS), 2006):
Among all 48,000 compounds or so, about 550 (1.1%) were called active. Inconclusive results (about 4%) are left out. No stated cut-off is given here; in the data, active means potency below about 15 µM; inconclusive means mostly about 16 µM to 33 µM; inactive means weaker than that. The list shows a part of the results.

biological target: Lysosomal acid glucosylceramidase (Homo sapiens) (UniProt P04062); assay: Glucocerebrosidase; conditions: purified enzyme, resorufin glucoside fluorescence (screen aimed at inhibitors), 20 min;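 further: the screen sought inhibitors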
Sequence of UniProt P04062 (P04062 whole entry, looked up): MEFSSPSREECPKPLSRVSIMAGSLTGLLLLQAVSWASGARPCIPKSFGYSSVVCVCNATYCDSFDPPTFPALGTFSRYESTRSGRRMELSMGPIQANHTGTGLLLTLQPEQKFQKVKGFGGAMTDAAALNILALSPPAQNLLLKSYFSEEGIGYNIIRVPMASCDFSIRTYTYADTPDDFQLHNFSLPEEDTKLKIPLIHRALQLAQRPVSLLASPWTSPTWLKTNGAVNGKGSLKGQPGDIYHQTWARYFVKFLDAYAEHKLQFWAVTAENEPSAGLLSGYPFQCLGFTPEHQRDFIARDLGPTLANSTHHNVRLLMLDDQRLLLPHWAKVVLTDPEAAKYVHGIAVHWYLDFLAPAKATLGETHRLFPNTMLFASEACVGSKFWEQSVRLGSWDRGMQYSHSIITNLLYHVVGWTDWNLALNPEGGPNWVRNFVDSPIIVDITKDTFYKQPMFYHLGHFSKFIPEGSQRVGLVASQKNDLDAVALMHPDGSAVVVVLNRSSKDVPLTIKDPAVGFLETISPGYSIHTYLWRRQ
How it was run: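 Wild-type enzyme at 0.2 nM final in 50mM citric acid/KH2PO4, 10mM sodium taurocholate, 0.01% tween-20, pH 5.9, with resorufin beta-D-glucopyranoside at 30 uM final. Compounds titrated, 20 min at RT, red fluorescence read; AC50 from titration.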
Potency means the concentration at half of the fitted maximal effect.

Structure (SMILES)	Potency
COc1ccccc1OCC(=O)Nc1cccc(C(=O)N2CCOCC2)c1	inactive: > 76.9 µM
Nc1nncn1C(=O)CCCOc1ccc(Cl)cc1Cl	inactive: > 76.9 µM
CC(=O)c1cccc(NC(=O)C2C3C=CC(C4CC34)C2C(=O)O)c1 (stereo not drawn)	inactive: > 76.9 µM
CCCCn1c(SCc2ccc(Cl)cc2)nc2c1c(=O)[nH]c(=O)n2C	inactive: > 76.9 µM
Cc1cccn2c(=O)c3cc(C(=O)NC(C)c4ccccc4)c(=N)n(CCCn4ccnc4)c3nc12 (stereo not drawn)	inactive
CCSc1nc2c(c(=O)[nH]1)C(c1ccccn1)C1=C(CC(C)(C)CC1=O)N2 (stereo not drawn)	inactive: > 76.9 µM
Cn1nnc2c(NCc3ccco3)nccc21	inactive: > 76.9 µM
COc1cc2nc(SCC(=O)NCc3ccco3)n(Cc3ccc(Cl)cc3)c(=O)c2cc1OC	inactive: > 76.9 µM
O=C(Nc1ccc2nn(-c3ccccc3)nc2c1)c1cccnc1	inactive: > 76.9 µM
COc1ccc(C2C(C(=O)NCc3ccccn3)c3ccccc3C(=O)N2C)cc1OC (stereo not drawn)	inactive: > 76.9 µM
COc1cccc(NC(=O)CSc2nccn2-c2cccc(OC)c2)c1	inactive: > 76.9 µM
Cn1c2c(c(=O)n(C)c1=O)CN(CCCN1CCOCC1)CN2	inactive: > 76.9 µM
NC(=O)c1nc(N2CCOCC2)nc(N2CCOCC2)n1	inactive: > 76.9 µM
CN(C)C(=O)CSc1nnc(CCN)o1	inactive: > 76.9 µM
COCc1cc(C)n(CC(=O)Nc2ccccc2C(=O)OC)c(=O)c1C#N	inactive: > 76.9 µM
Cc1ccc2c(c1)N(CC(=O)NC1CCCCC1C)C(=O)CO2 (stereo not drawn)	inactive: > 76.9 µM
CCC(=O)OCc1cc2cccc(C)c2[nH]c1=O	inactive: > 76.9 µM
CC1(C)CC(=O)c2sc(NS(C)(=O)=O)nc2C1	inactive: > 76.9 µM
Cc1noc(C)c1C(=O)Nc1cccnc1	inactive: > 76.9 µM
Nc1cc(N)nc(SCc2cccnc2)n1	inactive: > 76.9 µM

Structure (SMILES)	Potency
CC(=O)NCCOc1ccc2oc3ccccc3c2c1	inactive: > 76.9 µM
CS(=O)(=O)Nc1cccc(C(=O)CC2(O)C(=O)Nc3ccccc32)c1 (stereo not drawn)	inactive: > 76.9 µM
Cc1cc(NC(=O)CSc2ccc3nnc(-c4ccc(F)cc4)n3n2)no1	inactive: > 76.9 µM
O=C(CCCOc1ccc(Cl)cc1)N1CCCCCC1	inactive: > 76.9 µM
C=CCN1C(=O)CN=C1Nc1cc(C)ccc1C	inactive: > 76.9 µM
CSc1ccccc1NC(=O)CN(c1cccc(C)c1)S(C)(=O)=O	inactive: > 76.9 µM
CCC(C)NS(=O)(=O)c1cccs1 (stereo not drawn)	inactive: > 76.9 µM
Cc1c(C(=O)O)nnn1-c1ccccc1	inactive: > 76.9 µM
COc1ccc(C)cc1N(CC(=O)Nc1cccc(N(C)S(C)(=O)=O)c1)S(C)(=O)=O	inactive: > 76.9 µM
CCS(=O)(=O)N1CCCC(c2nc(-c3cccc(OC)c3)no2)C1 (stereo not drawn)	inactive: > 76.9 µM
Cc1nc2ccc(NC(=O)N3CCOCC3)cc2s1	inactive: > 76.9 µM
O=C(Nc1ccc2c(c1)OCO2)Nc1cnccn1	inactive: > 76.9 µM
CCC(C)NC(=O)C1(C)CCC(=O)N1CCc1ccc(OC)c(OC)c1 (stereo not drawn)	inactive: > 76.9 µM
COc1ccccc1NC(=O)C1=C(C)Nc2ncnn2C1c1ccc(C)o1 (stereo not drawn)	inactive: > 76.9 µM
COc1ccc2cc(CN(CC3COCCO3)S(=O)(=O)c3ccc(Cl)cc3)c(=O)[nH]c2c1 (stereo not drawn)	inactive: > 76.9 µM
CCOC(=O)c1[nH]c(C)c(/C(O)=C2\C(=O)C(=O)N(CCCN(CC)CC)C2c2cccnc2)c1C (stereo not drawn)	inactive: > 76.9 µM
O=C(CSc1nc2ccccc2[nH]1)c1ccco1	inactive: > 76.9 µM
Cc1nnc(SCC(=O)N2CCC(Cc3ccccc3)CC2)n(N)c1=O	inactive: > 76.9 µM
O=C(O)CCc1nc2ccccc2n(CCc2ccccc2)c1=O	inactive: > 76.9 µM
CCCCCOc1ccc(C(=O)N(Cc2ccco2)C2CCS(=O)(=O)C2)cc1 (stereo not drawn)	inactive: > 76.9 µM

Structure (SMILES)	Potency
COc1ccccc1C(c1nnnn1CCc1ccccc1)N1CCN(c2ccccc2)CC1 (stereo not drawn)	inactive: > 76.9 µM
Cn1c(SCC(=O)N2CCOCC2)nnc1-c1cnccn1	inactive: > 76.9 µM
c1ccc2c(c1)oc1c(NCc3ccc4c(c3)OCO4)ncnc12	inactive: > 76.9 µM
CC(NC(=O)COc1ccccc1)C(c1ccccc1)N1CCN(C)CC1 (stereo not drawn)	inactive: > 76.9 µM
O=C(CCN1C(=O)c2ccccc2C1=O)Nc1ccc(-c2cn3ccsc3n2)cc1	inactive: > 76.9 µM
CC1CC(C)CN(CCCNC(=O)COc2cc(=O)n(C)c3ccccc23)C1 (stereo not drawn)	inactive: > 76.9 µM
Cc1noc(C)c1CSc1nnc(-c2ccncc2)n1-c1ccc(Cl)c(Cl)c1	inactive: > 76.9 µM
COc1cc(OC)c(OC)cc1CN1CCN(c2ccccc2OC)CC1	inactive: > 76.9 µM
COc1ccc2nc(N3CCCC(O)C3)c(C#N)cc2c1 (stereo not drawn)	inactive: > 76.9 µM
CCc1nnc(NC(=O)Cn2nnc(-c3ccccc3F)n2)s1	active: 4.46 µM
Cc1ccc(S(=O)(=O)c2c(N)n(/N=C/c3ccco3)c3nc4ccccc4nc23)cc1	inactive: > 76.9 µM
COc1ccc(CCN2C(=NC(=O)CCC(=O)O)SC3CS(=O)(=O)CC32)cc1OC (stereo not drawn)	inactive: > 76.9 µM
CCOC(=O)C1=C(O)C(=O)N(c2ccc(S(N)(=O)=O)cc2)C1c1ccccc1 (stereo not drawn)	inactive: > 76.9 µM
CC(NC(=O)c1ccc(CS(=O)(=O)Cc2ccccc2F)o1)c1ccc2c(c1)OCCO2 (stereo not drawn)	inactive: > 76.9 µM
COc1ccc(C(c2nnnn2Cc2cccs2)N2CCN(c3ccccc3)CC2)cc1OC (stereo not drawn)	inactive: > 76.9 µM
Cc1nn(CC(C)C)c(=S)[nH]c1=O	inactive: > 76.9 µM
O=C(Nc1ccon1)c1cccc(S(=O)(=O)N2CCCC2)c1	inactive: > 76.9 µM
Cc1ccc2nc3c(cc(C(=O)NCCCn4ccnc4)n3C)c(=O)n2c1	inactive: > 76.9 µM
